In all, about 420,000 compounds went through this assay and about 50,000 (12%) were called active. Inconclusive means that the source gave no clear call. Such entries were picked first, then a sample of the others. Calls follow the shape of the dose curve; as a rule, active = well fitted inhibition curve with a large enough effect; inconclusive = small, poorly fitted or top-dose-only effect; inactive = flat fitted curve, though single readings scatter. Potencies of inconclusive entries are left out as doubtful fits.
Assay: qHTS for Inhibitors of human tyrosyl-DNA phosphodiesterase 1 (TDP1): qHTS in cells in presence of CPT; also: nearly all actives have a fitted effect of over 55% in size
Settings: chicken DT40 Tdp1-/-;hTDP1 cells + 20 nM CPT, ATP luminescence, 48 h; activity change, negative = growth inhibition: at 46.2 µM (top of the series) unless noted
Procedure, shortened: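 Chicken DT40 Tdp1-/- cells complemented with human TDP1, 400 cells/well, exposed to compounds plus 20 nM camptothecin for at least 48 h at 37 C; viability read as ATP content by CellTiter-Glo luminescence.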
% is scaled to controls: 0 for no effect and ±100 for the full control effect; potency is read from the fitted curve at half-maximal effect; tags tell the direction and shape of the fitted curve.

Row | SMILES | Potency | activity change, negative = growth inhibition
1 | CCOC(=O)c1cccc(NC(=O)c2oc3c(c2C)-c2nn(CC)cc2CC3)c1 | inconclusive [inhibitor, single point] | 
2 | COc1ccc(-n2c(SCC(=O)Nc3ccc(C(N)=O)cc3)nc3ccccc3c2=O)cc1OC |  | inactive: -11.7%
3 | COc1ccc(N2C(=O)N3[C@H](c4ccc(Br)cc4)[C@@H]4C(=O)N(C(C)(C)C)C(=O)[C@@H]4[C@]3(Cc3ccccc3)C2=O)cc1 |  | inactive: -8.34%
4 | Cc1c(Cl)cccc1-n1ncc(C(=O)NC2CCCCC2)c1C1CCN(C(=O)OC(C)(C)C)CC1 | inconclusive [inhibitor, single point] | 
5 | CC1(Cc2ccc(F)c(Cl)c2)C(=O)Nc2c(Cl)cccc21 (configuration not stated) | inconclusive [inhibitor, single point] | 
6 | COCOCCn1cc(CN2CCS(=O)(=O)N(Cc3ccc(-c4ccncc4)cc3)C(CC(C)C)C2=O)nn1 (configuration not stated) | active: 23.1 µM | 
7 | COCCN(Cc1cc2cc(C)ccc2n2nnnc12)C(=S)Nc1cccc(C)c1 | inconclusive [inhibitor, single point] | 
8 | Cc1cccc(C)c1NC(=O)C(c1ccccc1)n1c(-c2ccccc2)nc2ccccc21 (configuration not stated) | inconclusive [inhibitor, single point] | 
9 | O=C(c1ccc(S(=O)(=O)N2CCCC2)cc1)N1CCN(c2cccc(Cl)c2)CC1 | active: 23.1 µM | 
10 | O=S(=O)(c1ccc(SCc2c(F)cccc2Cl)nc1)N1CCCC1 | inconclusive [inhibitor, single point] | 
11 | O=S(=O)(c1ccccc1)N1CCN(CCOc2ccc(F)cc2)CC1 |  | inconclusive: -33.6% [inhibitor]
12 | CCOC(=O)COc1ccc2c(c1)c(C(C)=O)c(C)n2-c1ccc(OC)cc1 | inconclusive [inhibitor, single point] | 
13 | CN(C)c1ccc(C(=O)N2CCNC(=O)C2CC(=O)Nc2ccc(F)cc2)cc1 (configuration not stated) | inconclusive [inhibitor, partial curve, poor fit] | 
14 | Cn1c(=O)c(Oc2ccc(Cl)cc2)c(O)c2ccccc21 |  | inactive: -29.4%
15 | CC(CCc1ccccc1)NC(=O)C1CCC1 (configuration not stated) |  | inactive: -3.09%
16 | Cc1cc(C)c2c(CCl)cc(=O)oc2c1 | active: 0.92 µM | 
17 | Cc1ccc(-c2noc(C3CCCN(S(=O)(=O)c4ccc(S(=O)(=O)N(C)C)cc4)C3)n2)o1 (configuration not stated) |  | inactive: -24.6%
18 | CCSc1cc(C)nc2c(-c3ccc(Cl)cc3)c(C)nn12 |  | inactive: -8.36%
19 | COc1ccc(C(=O)Cn2nnc(-c3ccccc3NC(=O)C3CCCCC3)n2)cc1 | active: 23.1 µM | 
20 | O=C(NC(=S)Nc1ccc2c(c1)OCO2)c1ccccc1 |  | inactive: -3.4%
21 | Cn1c(SCc2ccccc2)nnc1-c1c[nH]c2ccccc12 | inconclusive [inhibitor, single point] | 
22 | Cc1ccc(C)c(N2CCN(CCCNC(=O)c3cnn(-c4ccc(F)cc4)c3C3CCN(C(=O)OC(C)(C)C)CC3)CC2)c1 | active: 4.11 µM | 
23 | COc1ccc(/C=C/c2ccc3ccccc3n2)c(OC)c1 | active: 15.8 µM | 
24 | CCC(O)c1cc2c(cc1NC(=O)c1ccc(C)cc1)OCCO2 (configuration not stated) | inconclusive [inhibitor, single point] | 

Row | SMILES | Potency | activity change, negative = growth inhibition
25 | Cn1c(=O)c2c(nc(NCc3ccco3)n2Cc2ccccc2Cl)n(C)c1=O | active: 4.11 µM | 
26 | CC1(C)CC2=C(CO1)C(=S)NC(c1ccccc1)N2CC1CCCO1 (configuration not stated) |  | inactive: -10.8%
27 | CC(Sc1nnc(-c2ccccc2)n1C)C(=O)NCc1ccco1 (configuration not stated) |  | inactive: -25.6%
28 | O=C(NCC(c1ccco1)N1CCc2ccccc2C1)c1cccc(F)c1 (configuration not stated) |  | inactive: -11.7%
29 | Cc1ccc(O)c(C2=Nc3ccccc3N=C(c3cccc([N+](=O)[O-])c3)C2)c1 | inconclusive [inhibitor, single point] | 
30 | CC(=O)c1ccc(-n2nnnc2SCC(=O)NC2CCCCC2)cc1 |  | inactive: -21.5%
31 | Cc1ccc(NC(=O)CNC(=O)C23CC4CC(CC(C4)C2)C3)nc1 | inconclusive [inhibitor, single point] | 
32 | C[C@@H]1CN([C@H](C)CO)C(=O)CCCn2nncc2CO[C@@H]1CN(C)C(=O)c1ccncc1 |  | inactive: -13.6%
33 | CCNC(=S)N1CCCC(C(N)=O)C1 (configuration not stated) |  | inactive: 11.2%
34 | CCOc1ccc(CNC(=O)Cn2nc(C)c3c(C)n(-c4ccc(C)cc4)nc3c2=O)cc1 | inconclusive [inhibitor, single point] | 
35 | CC(c1ccncn1)N(C)C(=O)c1ccc2oc(Cc3ccccc3)nc2c1 (configuration not stated) |  | inactive: -0.92%
36 | COc1ccc2c(c1)CC(C1(O)C(=O)Nc3ccccc31)C2=O (configuration not stated) |  | inactive: 3.43%
37 | CC(C)C(=O)Nc1nc2c(s1)CC(C(C)(C)C)CC2 (configuration not stated) | inconclusive [inhibitor, single point] | 
38 | Cn1cc(/C=C(\C#N)C(=O)Nc2cccc([N+](=O)[O-])c2)c2ccccc21 | active: 13 µM | 
39 | CCC(C)C(NC(=O)[C@@H](NC(=O)c1ccccc1F)C(C)C)C(=O)OC (some centres not stated) | inconclusive [inhibitor, single point] | 
40 | Cc1ccc(C)c(CSc2nnc(C)n3c2cc2sccc23)c1 | inconclusive [inhibitor, single point] | 
41 | COc1ccc(-c2cnc(C)o2)cc1S(=O)(=O)Nc1ccc(OC(F)(F)F)cc1 |  | inactive: -23.9%
42 | COc1ccc(C)cc1S(=O)(=O)Nc1ccncc1 |  | inactive: 7.05%
43 | Cc1ccc(N2CC(C(=O)Nc3ccc(S(=O)(=O)N4CCCC4)cc3)CC2=O)cc1C (configuration not stated) |  | inactive: -24.4%
44 | O=S(=O)(c1ccc(Cl)s1)N1CCN(C/C=C/c2ccccc2)CC1 | active: 16.4 µM | 
45 | Cc1noc(C)c1NC(=O)Nc1cccc2c1O[C@H](CN(C)S(=O)(=O)c1cn(C)cn1)[C@@H](C)CN([C@H](C)CO)C2=O |  | inactive: 12.5%
46 | COc1ccc(NC(=O)CSc2nc3ccccc3nc2N2CCCC2)cc1Cl | inconclusive [inhibitor, single point] | 
47 | COc1ccc(NS(=O)(=O)c2ccc3c(c2)N(C(C)=O)CCO3)c(OC)c1 |  | inconclusive: -30.4% [inhibitor]
48 | CC(C)(C)OC(=O)N1CCCC(C(=O)Nc2cccc(C(=O)NCCCCc3ccccc3)c2)C1 (configuration not stated) | inconclusive [inhibitor, single point] | 

Row | SMILES | Potency | activity change, negative = growth inhibition
49 | CCCn1c(=O)c2ccccc2n2c(SCC(=O)NCc3cccs3)nnc12 | inconclusive [inhibitor, partial curve] | 
50 | CCCCn1nnnc1C(c1ccccc1OC(F)(F)F)N1CCN(C/C=C/c2ccccc2)CC1 (configuration not stated) | inconclusive [inhibitor, single point] | 
51 | C=C1C(=O)C=C2CN(C(=O)c3ccccc3)[C@@](Cc3ccc(F)cc3)(C(=O)OC)[C@@H]12 | active: 0.164 µM | 
52 | COc1ccc(C(=O)COC(=O)[C@@H](NS(=O)(=O)c2ccccc2)C(C)C)cc1 |  | inactive: -22.9%
53 | O=C(Cn1c(=O)nc(-c2ccccc2)c2ccccc21)N1CCN(c2ccc(F)cc2)CC1 |  | inactive: 17%
54 | COc1cc(OC)c(NC2=C(c3ccc(C(F)(F)F)cc3)C(=O)c3ccccc32)cc1Cl | inconclusive [inhibitor, single point] | 
55 | COc1cc(NC(=O)C(Cc2ccccc2)NS(=O)(=O)c2cccs2)cc(OC)c1 (configuration not stated) | active: 23.1 µM | 
56 | CCSc1nnc(NC(=O)[C@@H](NC(=O)c2ccccc2F)C(C)C)s1 |  | inactive: 0.601%
57 | CCN1CCCc2cc(CN(CCN3CCOCC3)C(=S)Nc3ccc(OC)c(Cl)c3)ccc21 | inconclusive [inhibitor, single point] | 
58 | CC12CCC(=O)N1C(C(=O)Nc1ccccc1N1CCOCC1)CS2 (configuration not stated) |  | inactive: 9.23%
59 | S=C(NCc1ccccc1)N1CCN(c2cccc(Cl)c2)CC1 |  | inactive: -11.9%
60 | CC(C)c1ccc(C(=O)NC(=S)NCc2cccnc2)cc1 | inconclusive [inhibitor, single point] | 
61 | Cc1ccc(Cl)cc1N(CC(=O)NC(C)c1ccccc1)S(C)(=O)=O (configuration not stated) |  | inactive: -5.91%
62 | COc1ccc(NC(=O)C2CC(c3cc(OC)c(OC)c(OC)c3)=NO2)cc1OC (configuration not stated) | inconclusive [inhibitor, partial curve] | 
63 | COc1ccc(N(Cc2ccccc2)C(=O)CSc2nnc(Cn3nnc4ccccc43)o2)cc1 | active: 25.9 µM | 
64 | NS(=O)(=O)c1ccc(CCNC(=O)COC(=O)CC(c2ccccc2)c2ccccc2)cc1 | inconclusive [inhibitor, partial curve, poor fit] | 
65 | CC(C)C(=O)N1CCN(c2ccc(NC(=O)c3ccco3)cc2Cl)CC1 | inconclusive [inhibitor, partial curve, poor fit] | 
66 | CCOc1ccc(/C=N/NC(=O)NC23CC4CC(CC(C4)C2)C3)cc1O | inconclusive [inhibitor, single point] | 
67 | CCOc1nc(NCc2ccco2)nc(Nc2ccc(OC)cc2)n1 | inconclusive [inhibitor, single point] | 
68 | O=C(C1=C[C@H](c2ccc3c(c2)OCO3)C[C@H](OCc2ccc(CO)cc2)O1)N1CCN(Cc2ccc3c(c2)OCO3)CC1 | inconclusive [inhibitor, single point] | 
69 | O=C(OCc1cn([C@H]2C[C@H](c3ccc(Cl)cc3)N(Cc3cccs3)C[C@@H]2O)nn1)c1ccccc1 | inconclusive [inhibitor, single point] | 
70 | Cc1ccc(-n2cc(CNCCc3ncc(C)[nH]3)c(-c3ccc(F)cc3)n2)cc1 | active: 16.4 µM | 
71 | CCCNC(=O)Cn1nc(C)n2c(cc3cc(F)ccc32)c1=O | inconclusive [inhibitor, single point] | 
72 | CC(=O)c1ccc(NC(=O)C2CCN(S(=O)(=O)c3cccs3)CC2)cc1 | inconclusive [inhibitor, single point] | 

Reference: PubChem BioAssay AID686979 (National Center for Advancing Translational Sciences (NCATS), 2013)
